No constants are given. Whether binding was seen depends on the method and setting. For some of these results: In cells and extracts the contact can be indirect. Some results given as binding are weak or reduced against the parent protein; the word gives no strength. For some of these results: Where a sequence is shown, tags or fusion partners need not be part of it.
Experiments:
[1] = biological target: T1, GST–Scc2pip (Scc2 residues 1476–1493 with PIP mutated, fused to GST) (S. cerevisiae) (UniProt Q04002); assay: pull-down; GST–Scc2 fusions on glutathione Sepharose 4B beads, purified His-tagged yeast Pol30 (2.5 μg) in 0.7 ml binding buffer (1× PBS, 150 mM NaCl, 1% Triton X-100), overnight at 4 °C; western blot with anti-Pol30; both purified
T1 sequence: YSSAGKALTAARKHVKDT

Chains of the proteins cited; added tags and fusions are not shown.
UniProt Q6KC79: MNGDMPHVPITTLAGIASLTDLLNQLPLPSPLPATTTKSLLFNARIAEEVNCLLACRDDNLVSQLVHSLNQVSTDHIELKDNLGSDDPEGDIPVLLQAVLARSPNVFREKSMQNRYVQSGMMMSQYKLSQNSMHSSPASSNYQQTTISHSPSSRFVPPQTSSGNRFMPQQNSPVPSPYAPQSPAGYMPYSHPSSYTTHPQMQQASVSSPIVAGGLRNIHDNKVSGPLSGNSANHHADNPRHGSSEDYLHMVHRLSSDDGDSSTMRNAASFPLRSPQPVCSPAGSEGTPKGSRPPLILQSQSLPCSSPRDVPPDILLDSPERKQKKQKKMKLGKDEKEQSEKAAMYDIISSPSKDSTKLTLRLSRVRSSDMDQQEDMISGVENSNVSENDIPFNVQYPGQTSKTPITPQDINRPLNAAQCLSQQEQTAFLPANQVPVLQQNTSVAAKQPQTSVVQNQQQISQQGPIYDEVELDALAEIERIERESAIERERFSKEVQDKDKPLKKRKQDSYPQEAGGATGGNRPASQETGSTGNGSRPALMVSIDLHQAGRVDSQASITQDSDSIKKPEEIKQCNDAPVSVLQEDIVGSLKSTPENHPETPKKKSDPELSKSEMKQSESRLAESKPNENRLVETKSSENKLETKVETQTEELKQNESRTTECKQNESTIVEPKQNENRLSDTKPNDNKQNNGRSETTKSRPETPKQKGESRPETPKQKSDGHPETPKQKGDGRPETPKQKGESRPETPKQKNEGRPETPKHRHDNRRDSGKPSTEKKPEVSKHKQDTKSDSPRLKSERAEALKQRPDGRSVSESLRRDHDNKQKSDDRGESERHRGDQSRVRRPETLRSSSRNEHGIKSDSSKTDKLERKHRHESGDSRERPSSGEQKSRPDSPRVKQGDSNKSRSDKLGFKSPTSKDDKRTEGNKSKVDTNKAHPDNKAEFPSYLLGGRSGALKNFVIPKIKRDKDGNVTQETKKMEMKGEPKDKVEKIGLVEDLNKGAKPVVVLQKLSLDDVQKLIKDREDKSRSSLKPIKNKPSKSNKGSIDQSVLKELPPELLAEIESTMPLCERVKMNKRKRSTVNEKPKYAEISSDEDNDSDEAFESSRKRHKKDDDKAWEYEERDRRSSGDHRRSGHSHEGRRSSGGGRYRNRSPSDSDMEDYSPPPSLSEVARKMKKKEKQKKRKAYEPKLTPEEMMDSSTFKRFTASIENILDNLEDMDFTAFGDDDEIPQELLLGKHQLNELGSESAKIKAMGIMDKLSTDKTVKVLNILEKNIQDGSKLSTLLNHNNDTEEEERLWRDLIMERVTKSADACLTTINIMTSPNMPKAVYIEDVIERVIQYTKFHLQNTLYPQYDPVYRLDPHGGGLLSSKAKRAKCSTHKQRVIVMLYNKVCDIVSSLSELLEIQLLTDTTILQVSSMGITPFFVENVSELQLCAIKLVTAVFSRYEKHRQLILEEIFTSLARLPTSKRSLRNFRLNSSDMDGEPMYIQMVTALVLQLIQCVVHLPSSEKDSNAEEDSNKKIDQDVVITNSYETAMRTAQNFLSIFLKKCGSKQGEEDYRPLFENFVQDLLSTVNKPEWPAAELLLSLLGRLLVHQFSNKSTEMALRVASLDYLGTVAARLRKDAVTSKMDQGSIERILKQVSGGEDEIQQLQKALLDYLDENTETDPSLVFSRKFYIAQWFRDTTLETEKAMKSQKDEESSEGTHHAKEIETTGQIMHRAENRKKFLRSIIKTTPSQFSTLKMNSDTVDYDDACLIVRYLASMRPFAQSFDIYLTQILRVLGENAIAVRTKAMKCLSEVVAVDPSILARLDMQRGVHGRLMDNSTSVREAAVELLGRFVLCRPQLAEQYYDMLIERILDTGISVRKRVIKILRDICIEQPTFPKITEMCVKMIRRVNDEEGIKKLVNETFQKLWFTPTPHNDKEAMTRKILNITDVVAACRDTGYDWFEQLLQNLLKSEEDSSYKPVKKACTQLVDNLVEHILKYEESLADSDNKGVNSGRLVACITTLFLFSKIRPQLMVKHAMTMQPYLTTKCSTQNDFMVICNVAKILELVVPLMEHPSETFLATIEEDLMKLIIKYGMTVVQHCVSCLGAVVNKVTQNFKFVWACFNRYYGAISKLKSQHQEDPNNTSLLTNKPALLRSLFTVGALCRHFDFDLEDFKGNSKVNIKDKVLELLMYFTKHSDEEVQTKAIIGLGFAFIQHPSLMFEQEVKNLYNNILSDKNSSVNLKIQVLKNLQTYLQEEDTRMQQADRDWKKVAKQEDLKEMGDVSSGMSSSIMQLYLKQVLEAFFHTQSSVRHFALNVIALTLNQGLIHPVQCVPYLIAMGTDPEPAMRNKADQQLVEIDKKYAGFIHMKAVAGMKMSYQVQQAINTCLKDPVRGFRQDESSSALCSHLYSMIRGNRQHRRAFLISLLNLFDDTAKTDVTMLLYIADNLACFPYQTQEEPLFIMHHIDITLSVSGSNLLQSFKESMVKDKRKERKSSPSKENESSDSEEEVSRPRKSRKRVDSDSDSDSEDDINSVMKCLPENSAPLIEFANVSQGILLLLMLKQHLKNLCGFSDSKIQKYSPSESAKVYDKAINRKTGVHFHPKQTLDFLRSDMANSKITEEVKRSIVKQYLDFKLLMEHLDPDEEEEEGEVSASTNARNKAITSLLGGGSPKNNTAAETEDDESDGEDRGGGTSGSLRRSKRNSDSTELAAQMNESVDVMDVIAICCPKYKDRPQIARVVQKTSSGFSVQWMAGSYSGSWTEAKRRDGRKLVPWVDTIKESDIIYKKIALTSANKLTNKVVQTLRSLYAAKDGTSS
UniProt P15873: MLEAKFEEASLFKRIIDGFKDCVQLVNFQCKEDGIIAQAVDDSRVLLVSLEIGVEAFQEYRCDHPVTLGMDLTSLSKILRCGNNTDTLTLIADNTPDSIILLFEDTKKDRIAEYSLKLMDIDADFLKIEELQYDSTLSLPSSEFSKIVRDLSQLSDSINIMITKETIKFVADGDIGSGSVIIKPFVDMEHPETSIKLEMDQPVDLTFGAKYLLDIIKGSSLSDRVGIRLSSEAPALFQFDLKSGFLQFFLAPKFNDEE
UniProt P12004: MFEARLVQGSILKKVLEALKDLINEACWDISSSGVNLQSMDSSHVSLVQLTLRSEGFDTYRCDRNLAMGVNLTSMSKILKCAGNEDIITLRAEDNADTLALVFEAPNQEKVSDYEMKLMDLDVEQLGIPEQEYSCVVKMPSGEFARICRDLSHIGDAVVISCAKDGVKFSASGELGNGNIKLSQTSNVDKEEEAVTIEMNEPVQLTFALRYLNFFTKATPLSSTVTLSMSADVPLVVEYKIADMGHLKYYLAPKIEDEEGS

[2] = biological target: T2, GST–Scc2^C1100-168aa (Scc2 from residue 394 with the last 168 amino acids truncated, fused to GST) (S. cerevisiae) (UniProt Q04002); assay: as above
T2 sequence: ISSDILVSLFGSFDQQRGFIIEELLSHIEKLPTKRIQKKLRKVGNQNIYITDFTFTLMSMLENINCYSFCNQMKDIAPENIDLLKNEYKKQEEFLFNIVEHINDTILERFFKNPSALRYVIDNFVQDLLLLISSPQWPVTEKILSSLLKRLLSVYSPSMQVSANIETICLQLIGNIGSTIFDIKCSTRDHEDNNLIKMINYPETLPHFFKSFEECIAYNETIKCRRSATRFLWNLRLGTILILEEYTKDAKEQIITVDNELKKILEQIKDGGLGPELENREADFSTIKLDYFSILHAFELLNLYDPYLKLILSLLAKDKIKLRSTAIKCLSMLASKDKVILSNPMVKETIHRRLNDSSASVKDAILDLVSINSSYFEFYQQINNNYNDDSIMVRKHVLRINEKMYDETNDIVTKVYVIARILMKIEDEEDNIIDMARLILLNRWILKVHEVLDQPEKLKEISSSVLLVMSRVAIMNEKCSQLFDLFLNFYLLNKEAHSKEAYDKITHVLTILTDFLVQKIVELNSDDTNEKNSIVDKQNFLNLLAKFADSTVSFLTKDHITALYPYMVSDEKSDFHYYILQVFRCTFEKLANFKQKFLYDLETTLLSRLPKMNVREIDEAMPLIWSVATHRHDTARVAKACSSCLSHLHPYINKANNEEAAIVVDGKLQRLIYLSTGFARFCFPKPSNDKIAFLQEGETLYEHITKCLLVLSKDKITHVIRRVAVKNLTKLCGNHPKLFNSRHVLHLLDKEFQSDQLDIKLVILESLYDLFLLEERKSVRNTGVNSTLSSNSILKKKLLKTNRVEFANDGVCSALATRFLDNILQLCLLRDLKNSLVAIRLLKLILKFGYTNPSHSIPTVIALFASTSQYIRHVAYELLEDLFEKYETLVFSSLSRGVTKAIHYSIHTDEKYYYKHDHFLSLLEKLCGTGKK

[3] = biological target: T3, N-terminally 7His8Flag (HF)-tagged Scc2^E822K (S. cerevisiae) (UniProt Q04002); assay: cross-linking; yeast cultures cross-linked with 1% formaldehyde for 30 min; Ni-NTA pulldown of HF-tagged Scc2^E822K under denaturing conditions; blot with anti-Pol30
T3 sequence: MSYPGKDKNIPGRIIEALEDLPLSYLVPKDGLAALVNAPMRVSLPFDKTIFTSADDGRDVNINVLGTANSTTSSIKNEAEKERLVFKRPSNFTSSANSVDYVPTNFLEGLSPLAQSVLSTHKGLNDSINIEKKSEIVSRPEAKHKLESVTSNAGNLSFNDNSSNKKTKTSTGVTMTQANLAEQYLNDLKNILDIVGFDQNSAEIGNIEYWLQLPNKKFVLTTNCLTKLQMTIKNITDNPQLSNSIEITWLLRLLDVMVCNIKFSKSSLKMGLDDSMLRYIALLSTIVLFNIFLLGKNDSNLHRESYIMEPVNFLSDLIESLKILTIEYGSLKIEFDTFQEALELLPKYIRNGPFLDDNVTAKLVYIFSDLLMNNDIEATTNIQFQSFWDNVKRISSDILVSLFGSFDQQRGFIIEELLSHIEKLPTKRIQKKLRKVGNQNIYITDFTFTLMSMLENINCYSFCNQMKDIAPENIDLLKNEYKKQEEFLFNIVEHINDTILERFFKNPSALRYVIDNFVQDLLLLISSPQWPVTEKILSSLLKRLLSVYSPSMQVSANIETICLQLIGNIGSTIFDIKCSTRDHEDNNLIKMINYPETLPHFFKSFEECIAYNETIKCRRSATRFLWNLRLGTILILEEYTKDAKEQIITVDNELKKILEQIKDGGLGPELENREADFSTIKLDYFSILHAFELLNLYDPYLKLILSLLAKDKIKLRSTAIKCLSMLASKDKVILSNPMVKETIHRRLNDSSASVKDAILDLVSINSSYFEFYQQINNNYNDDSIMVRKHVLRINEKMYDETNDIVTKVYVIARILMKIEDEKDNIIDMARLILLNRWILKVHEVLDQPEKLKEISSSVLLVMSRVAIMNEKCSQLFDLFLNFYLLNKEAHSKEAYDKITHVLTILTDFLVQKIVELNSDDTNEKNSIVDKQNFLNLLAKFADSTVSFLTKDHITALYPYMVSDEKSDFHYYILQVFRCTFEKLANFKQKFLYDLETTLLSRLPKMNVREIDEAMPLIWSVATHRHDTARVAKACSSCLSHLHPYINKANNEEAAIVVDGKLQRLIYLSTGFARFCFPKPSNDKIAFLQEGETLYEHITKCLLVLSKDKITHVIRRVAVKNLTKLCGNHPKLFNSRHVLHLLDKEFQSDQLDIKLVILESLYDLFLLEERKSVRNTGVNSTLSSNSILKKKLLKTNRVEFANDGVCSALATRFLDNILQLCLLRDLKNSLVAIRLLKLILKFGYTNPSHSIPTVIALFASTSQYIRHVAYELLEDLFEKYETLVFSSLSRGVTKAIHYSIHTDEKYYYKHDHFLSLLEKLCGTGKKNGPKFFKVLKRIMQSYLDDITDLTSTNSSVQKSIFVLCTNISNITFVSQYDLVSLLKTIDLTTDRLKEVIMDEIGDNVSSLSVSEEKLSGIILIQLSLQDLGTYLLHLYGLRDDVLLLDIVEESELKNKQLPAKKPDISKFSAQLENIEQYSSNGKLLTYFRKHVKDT

[4] = biological target: human NIPBL, endogenous (human (endogenous in TK6)) (UniProt Q6KC79); assay: co-IP; IP of endogenous NIPBL (anti-NIPBL A301-779A, Dynabeads Protein A) from TK6 lysates with benzonase; lysis 150 mM NaCl, washes 200 mM NaCl, 0.5% NP-40; also after nocodazole synchronisation and release of TP53 knockout TK6 cells (asynchronous, G1, S, G2/M)

## N-terminally His-tagged yeast Pol30 (PCNA) (from UniProt P15873 1-258)
[1]
  binding: no binding (tested: 2.5 μg His-tagged Pol30 in 0.7 ml)
[2]
  binding: no binding

## Pol30 (yeast PCNA), endogenous (from UniProt P15873 1-258)
[3]
  binding: binds

## human PCNA, endogenous (from UniProt P12004 1-261)
[4]
  binding: binds

Reference: publication PMC10497406
